# From PubChem BioAssay (NCATS)
# Inconclusive means that the source gave no clear call. Such entries were picked first, then a sample of the others. For some of these results: Potencies of inconclusive entries are doubtful fits and often do not repeat. Activity calls are given as the source filed them. The call rests on the fitted dose curve; in most records, active means well fitted curve in the direction sought with a large enough effect; inconclusive means small, poorly fitted or top-dose-only effect, or another doubt; inactive means no such curve, though single readings can be large; an effect the other way counts as inactive or inconclusive.
# How the values were obtained:
# [1] = P-glycoprotein substrates identified in KB-8-5-11 adenocarcinoma cell line, qHTS therapeutic library screen (AID 1346987); further: nearly all actives have a fitted effect of over 65% in size
# Method in brief: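 P-gp-mediated resistance screen: KB-8-5-11 cells treated 72 h with compounds in dose-response. CellTiter-Glo viability.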
# CRL-7250 = normal cell line; assay: Cytotoxic Profiling of Annotated Libraries Using Quantitative High-Throughput Screening (AID 1296008); settings: Five cell lines viability, CellTiter-Glo ATP luminescence, 48-72 h; max response: hits give low values; further: nearly all actives have a fitted effect of over 60% in size; on max response: on the % scale 0 is the no-effect control and ±100 the full control effect
# Method in brief: (§1)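 Cells exposed to compounds for 48 or 72 hr at 37 degrees Celsius. Viability read as ATP-coupled luminescence with CellTiter-Glo after 10 min at room temperature.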
# HEK293 = assay: as above; settings: Five cell lines viability, CellTiter-Glo ATP luminescence, 48-72 h; max response: hits give low values
# Method in brief: as §1
# KB-3-1 = assay: as above; settings: Five cell lines viability, CellTiter-Glo ATP luminescence, 48-72 h; max response: hits give low values
# Method in brief: as §1
# CAOV3 = assay: Primary qHTS to identify gynecologic anti-cancer compounds using libraries of approved drugs and bioactive compounds (AID 1345084); settings: Gynecologic cancer cell panel viability, ATPlite luminescence, 48 h; series mostly up to 57.5 µM; further: nearly all actives have a fitted effect of over 55% in size; on activity change, negative = cytotoxicity: on the % scale 0 is the no-effect control and ±100 the full control effect
# Method in brief: (§2)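 Cell viability after 48 h drug treatment, ATPlite luminescence readout; five doses.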
# Hek293T = assay: as above; settings: Gynecologic cancer cell panel viability, ATPlite luminescence, 48 h, control line for the selectivity index; series mostly up to 57.5 µM
# Method in brief: as §2
# OV90 = assay: as above; settings: Gynecologic cancer cell panel viability, ATPlite luminescence, 48 h; series mostly up to 57.5 µM
# Method in brief: as §2
# SKOV3 = assay: as above; settings: Gynecologic cancer cell panel viability, ATPlite luminescence, 48 h; series mostly up to 57.5 µM
# Method in brief: as §2
# [2] = Primary qHTS for inhibitors of nuclear receptor binding SET domain protein 2 (NSD2) in an isogenic RCH-ACV NSD2 p.E1099K mutant (9B) (AID 1645876); further: nearly all actives have a fitted effect of over 70% in size
# [3] = Primary qHTS for inhibitors of nuclear receptor binding SET domain protein 2 (NSD2) in an RCH-ACV wild type WT cells (2C) (AID 1645877); settings: activity change, negative = cell killing: at 44.9 µM (top of the series); further: nearly all actives have a fitted effect of over 70% in size
# CASKI = assay: Primary qHTS to identify gynecologic anti-cancer compounds using libraries of approved drugs and bioactive compounds (AID 1345084); settings: Gynecologic cancer cell panel viability, ATPlite luminescence, 48 h; activity change, negative = cytotoxicity: at 57.5 µM (top of the series); further: nearly all actives have a fitted effect of over 55% in size; on activity change, negative = cytotoxicity: on the % scale 0 is the no-effect control and ±100 the full control effect
# Method in brief: as §2
# JEG-3 = assay: as above; settings: Gynecologic cancer cell panel viability, ATPlite luminescence, 48 h; series mostly up to 57.5 µM
# Method in brief: as §2
# PA-1 = assay: as above; settings: Gynecologic cancer cell panel viability, ATPlite luminescence, 48 h; series mostly up to 57.5 µM
# Method in brief: as §2
# Tov112D = assay: as above; settings: Gynecologic cancer cell panel viability, ATPlite luminescence, 48 h; activity change, negative = cytotoxicity: at 57.5 µM (top of the series)
# Method in brief: as §2
# C33A = assay: as above; settings: Gynecologic cancer cell panel viability, ATPlite luminescence, 48 h; series mostly up to 57.5 µM
# Method in brief: as §2
# Tov-21-G = assay: as above; settings: Gynecologic cancer cell panel viability, ATPlite luminescence, 48 h; activity change, negative = cytotoxicity: at 57.5 µM (top of the series)
# Method in brief: as §2
# Es-2 = assay: as above; settings: Gynecologic cancer cell panel viability, ATPlite luminescence, 48 h; series mostly up to 57.5 µM
# Method in brief: as §2
# [4] = test system: Zika virus NS2B-NS3 protease (unlinked complex); assay: Primary screen GU Rhodamine qHTS for Zika virus inhibitors: Unlinked NS2B-NS3 protease assay (AID 1347159); further: nearly all actives have a fitted effect of over 60% in size
# Method in brief: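 A qHTS format was used, with compound concentrations ranging up to 114 microM. Each compound was preincubated with 25 nM NS2B-NS3 protease, and the substrate was then added at 1.5 microM. Curves were fitted with a 4-parameter Hill model.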
# [5] = Primary fluorescence-based thiol-reactive (MSTI) qHTS assay for identification of artifact compounds. (AID 1845221);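 further: thiol-reactive compounds lower the probe fluorescence signal; nearly all actives have a fitted effect of over 65% in size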
# Method in brief: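 Probe: MSTI 4 uM, PBS pH 7.4, 2% DMSO. Incubation 1 h, RT, light-protected. Readout fluorescence 525/598 nm.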
# Potency means the concentration at half of the fitted maximal effect; tags describe the fitted curve by direction and shape.
smiles,measurement,setting,value
Nc1nc2c(c(N3CC[C@@H](N)C3)n1)CCCc1ccccc1-2,Potency,[1],"inconclusive: 29.1 µM [inhibitor, single point]"
same,Potency,CRL-7250,"inconclusive: 18.4 µM [inhibitor, single point]"
same,Potency,HEK293,"inconclusive: 29.1 µM [inhibitor, single point]"
same,Potency,KB-3-1,"inconclusive: 20.6 µM [inhibitor, single point]"
same,Potency,CAOV3,"inconclusive: 20 µM [cytotoxic, partial curve, poor fit]"
same,Potency,Hek293T,"inconclusive: 39.8 µM [cytotoxic, single point]"
same,Potency,OV90,"inconclusive: 7.94 µM [cytotoxic, full curve]"
same,Potency,SKOV3,active: 28.2 µM
COC(=O)C1=C(C)NC(C)=C(C(=O)OC)C1c1cccc(NC(=O)NCCCN2CCC(c3cccc(OC)c3)CC2)c1,Potency,[2],active: 4.59 µM
same,Potency,[3],active: 4.59 µM
same,Potency,CRL-7250,"inconclusive: 18.4 µM [inhibitor, single point]"
same,Potency,HEK293,"inconclusive: 23.1 µM [inhibitor, single point]"
same,Potency,KB-3-1,"inconclusive: 29.1 µM [inhibitor, single point]"
same,Potency,CAOV3,active: 22.4 µM
same,Potency,CASKI,"inconclusive: 25.1 µM [cytotoxic, single point]"
same,Potency,JEG-3,"inconclusive: 22.4 µM [cytotoxic, single point]"
same,Potency,OV90,"inconclusive: 1.58 µM [cytotoxic, full curve]"
same,Potency,PA-1,"inconclusive: 20 µM [cytotoxic, single point]"
same,Potency,SKOV3,"inconclusive: 31.6 µM [cytotoxic, single point]"
same,Potency,Tov112D,"inconclusive: 39.8 µM [cytotoxic, partial curve, poor fit]"
C/C=C/C=C/C=C/C(=O)O[C@@H]1[C@@H](OC)C2=C(C(=O)N(C(CCC(=O)O)C(=O)O)C2)[C@@]2(C)CCCC(C)(C)[C@H]12 (stereo partly specified),max response,CRL-7250,inactive: -4.83%
same,outcome,HEK293,inactive
same,max response,KB-3-1,inactive: 0.124%
same,Potency,Hek293T,inactive
same,Potency,PA-1,inactive
same,Potency,SKOV3,"inconclusive: 17.8 µM [rising, single point]"
C=C1CC[C@@H]2[C@](C)(CO)[C@H](O)CC[C@@]2(C)[C@@H]1C/C=C1/C(=O)OC[C@@H]1O,Potency,[1],"inconclusive: 20.2 µM [inhibitor, single point]"
same,Potency,[2],"inconclusive: 17.9 µM [inhibitor, single point]"
same,Potency,[3],"inconclusive: 11.3 µM [inhibitor, single point]"
same,max response,CRL-7250,inactive: -17.3%
same,Potency,HEK293,"inconclusive: 20.2 µM [inhibitor, single point]"
same,Potency,KB-3-1,"inconclusive: 12.8 µM [inhibitor, single point]"
same,Potency,C33A,"inconclusive: 31.6 µM [cytotoxic, single point]"
same,Potency,CASKI,"inconclusive: 28.2 µM [cytotoxic, single point]"
same,Potency,Hek293T,"inconclusive: 12.6 µM [cytotoxic, single point]"
same,Potency,PA-1,"inconclusive: 28.2 µM [cytotoxic, single point]"
same,Potency,SKOV3,"inconclusive: 28.2 µM [cytotoxic, single point]"
same,Potency,Tov-21-G,"inconclusive: 14.1 µM [cytotoxic, single point]"
same,Potency,Tov112D,"inconclusive: 11.2 µM [cytotoxic, single point]"
C=C1C(=O)O[C@@H]2C3C(=C(C)[C@@H](O)[C@@H](OC(=O)/C(=C/C)COC(C)=O)[C@@H]12)C(=O)[C@H]1O[C@@]31C (stereo partly specified),Potency,[1],"inconclusive: 10 µM [inhibitor, single point]"
same,Potency,CRL-7250,active: 6.32 µM
same,Potency,HEK293,active: 1 µM
same,Potency,KB-3-1,"inconclusive: 11.2 µM [inhibitor, single point]"
same,Potency,C33A,"inconclusive: 17.8 µM [cytotoxic, single point]"
same,Potency,CAOV3,active: 8.91 µM
same,Potency,CASKI,"inconclusive: 15.8 µM [cytotoxic, single point]"
same,Potency,Es-2,active: 8.91 µM
same,Potency,Hek293T,active: 7.94 µM
same,Potency,JEG-3,"inconclusive: 15.8 µM [cytotoxic, single point]"
same,Potency,PA-1,active: 8.91 µM
same,Potency,SKOV3,"inconclusive: 17.8 µM [cytotoxic, single point]"
same,Potency,Tov-21-G,"inconclusive: 12.6 µM [cytotoxic, single point]"
same,Potency,Tov112D,active: 12.6 µM
N/C(=N\N=C\c1ccc(Cl)cc1)N/N=C/c1ccc(Cl)cc1,outcome,CRL-7250,inactive
same,Potency,HEK293,"inconclusive: 33.5 µM [inhibitor, single point]"
same,max response,KB-3-1,inactive: 13.1%
same,Potency,CAOV3,inactive
same,Potency,SKOV3,active: 31.6 µM
CCn1c(-c2nonc2N)nc2c(C#CC(C)(C)O)ncc(OCC3CCCNC3)c21 (stereo unspecified),Potency,[1],"inconclusive: 16.4 µM [inhibitor, partial curve, poor fit]"
same,Potency,[4],inactive
same,Potency,CRL-7250,"inconclusive: 29.1 µM [inhibitor, single point]"
same,Potency,HEK293,active: 0.82 µM
same,Potency,KB-3-1,"inconclusive: 25.9 µM [inhibitor, single point]"
same,Potency,C33A,"inconclusive: 15.8 µM [cytotoxic, partial curve, poor fit]"
same,Potency,CAOV3,"inconclusive: 28.2 µM [cytotoxic, partial curve, poor fit]"
same,Potency,CASKI,"inconclusive: 12.6 µM [cytotoxic, partial curve]"
same,Potency,Hek293T,"inconclusive: 1.78 µM [cytotoxic, full curve]"
same,Potency,OV90,"inconclusive: 4.47 µM [cytotoxic, single point]"
same,Potency,PA-1,active: 28.2 µM
same,Potency,SKOV3,"inconclusive: 22.4 µM [cytotoxic, partial curve, poor fit]"
same,Potency,Tov-21-G,"inconclusive: 0.316 µM [cytotoxic, full curve]"
C=CC(=O)Nc1cc(Nc2nccc(-c3cn(C)c4ccccc34)n2)c(OC)cc1N(C)CCN(C)C,Potency,[2],active: 3.32 µM
same,Potency,[5],"inconclusive: 0.947 µM [inhibitor, full curve]"
same,Potency,CRL-7250,"inconclusive: 18.4 µM [inhibitor, single point]"
same,Potency,HEK293,"inconclusive: 29.1 µM [inhibitor, single point]"
same,Potency,KB-3-1,"inconclusive: 23.1 µM [inhibitor, single point]"
same,Potency,C33A,"inconclusive: 28.2 µM [cytotoxic, single point]"
same,Potency,CAOV3,active: 35.5 µM
same,Potency,CASKI,active: 14.1 µM
same,Potency,Es-2,"inconclusive: 39.8 µM [cytotoxic, single point]"
same,Potency,Hek293T,"inconclusive: 28.2 µM [cytotoxic, single point]"
same,Potency,JEG-3,"inconclusive: 31.6 µM [cytotoxic, single point]"
same,Potency,OV90,"inconclusive: 28.2 µM [cytotoxic, single point]"
same,Potency,PA-1,active: 25.1 µM
same,Potency,SKOV3,"inconclusive: 31.6 µM [cytotoxic, single point]"
same,Potency,Tov-21-G,"inconclusive: 8.91 µM [cytotoxic, partial curve, poor fit]"
same,Potency,Tov112D,"inconclusive: 15.8 µM [cytotoxic, partial curve]"
O[C@@](Cc1ncc(CC2(C(F)(F)F)CC2)[nH]1)(c1ccc(-n2cccn2)cc1)C(F)(F)F,Potency,[1],"inconclusive: 13 µM [inhibitor, partial curve]"
same,Potency,[3],"inconclusive: 25.8 µM [inhibitor, single point]"
same,outcome,CRL-7250,inactive
same,Potency,HEK293,"inconclusive: 1.84 µM [inhibitor, partial curve, poor fit]"
same,Potency,KB-3-1,"inconclusive: 18.4 µM [inhibitor, single point]"
same,Potency,CAOV3,inactive
same,Potency,SKOV3,inactive
same,Potency,Tov-21-G,inactive
same,Potency,Tov112D,inactive
COc1cc(/C=C2\CCCN([C@@H](C)c3ccc(F)cc3)C2=O)ccc1-n1cnc(C)c1,Potency,[1],"inconclusive: 16.4 µM [inhibitor, partial curve]"
same,Potency,CRL-7250,"inconclusive: 29.1 µM [inhibitor, single point]"
same,Potency,HEK293,active: 13 µM
same,Potency,KB-3-1,"inconclusive: 23.1 µM [inhibitor, single point]"
same,Potency,C33A,"inconclusive: 10 µM [cytotoxic, partial curve]"
same,Potency,Es-2,"inconclusive: 25.1 µM [cytotoxic, partial curve, poor fit]"
same,Potency,Hek293T,"inconclusive: 25.1 µM [cytotoxic, partial curve]"
same,Potency,PA-1,"inconclusive: 39.8 µM [cytotoxic, single point]"
same,Potency,SKOV3,"inconclusive: 39.8 µM [cytotoxic, single point]"
O=C(Nc1ccc(CN2CCOCC2)cc1)c1ccc(-c2cccc(Cl)c2)o1,Potency,[1],active: 16.4 µM
same,Potency,CRL-7250,"inconclusive: 29.1 µM [inhibitor, single point]"
same,Potency,HEK293,active: 9.2 µM
same,Potency,KB-3-1,"inconclusive: 8.2 µM [inhibitor, partial curve]"
same,Potency,Es-2,inactive
same,Potency,OV90,"inconclusive: 35.5 µM [cytotoxic, single point]"
same,Potency,PA-1,"inconclusive: 22.4 µM [cytotoxic, single point]"
same,Potency,SKOV3,"inconclusive: 28.2 µM [cytotoxic, single point]"
c1ccc(-c2ccc(CNc3nc(-c4ccccn4)nnc3-c3ccccc3)cc2)cc1,Potency,[4],inactive
same,Potency,[3],active: 2.95 µM
same,Potency,CRL-7250,active: 5.8 µM
same,Potency,HEK293,active: 5.17 µM
same,Potency,KB-3-1,"inconclusive: 5.8 µM [inhibitor, full curve]"
same,Potency,C33A,active: 12.6 µM
same,Potency,CAOV3,active: 8.91 µM
same,Potency,CASKI,active: 11.2 µM
same,Potency,Es-2,active: 17.8 µM
same,Potency,Hek293T,"inconclusive: 28.2 µM [cytotoxic, single point]"
same,Potency,PA-1,"inconclusive: 8.91 µM [cytotoxic, partial curve, poor fit]"
same,Potency,SKOV3,active: 12.6 µM
same,Potency,Tov-21-G,"inconclusive: 20 µM [cytotoxic, single point]"
same,Potency,Tov112D,active: 11.2 µM
C/C=C/C=C/c1cc2c(C=O)c(O)c(CC=C(C)C)cc2o1,Potency,[4],active: 12.6 µM
same,Potency,[2],"inconclusive: 18.3 µM [inhibitor, single point]"
same,Potency,[3],"inconclusive: 20.5 µM [inhibitor, single point]"
same,Potency,CRL-7250,"inconclusive: 16.4 µM [inhibitor, single point]"
same,Potency,HEK293,"inconclusive: 29.1 µM [inhibitor, single point]"
same,Potency,KB-3-1,"inconclusive: 18.4 µM [inhibitor, single point]"
same,Potency,C33A,inactive
same,Potency,PA-1,inactive
same,Potency,Tov112D,inactive
